# Experimental data taken from PubChem BioAssay AID493208 (National Center for Advancing Translational Sciences (NCATS), 2011).
# In all, about 44,000 compounds went through this assay and about 340 (0.77%) were called active. Roughly 5% stayed inconclusive and do not appear here. Calls follow the shape of the dose curve; as a rule, active = well fitted inhibition curve with a large enough effect; inconclusive = small, poorly fitted or top-dose-only effect; inactive = flat fitted curve, though single readings scatter. The list shows a part of the results.
# Experiment: Acumen qHTS Assay for Inhibitors of the mTORC1 Signaling Pathway in MEF (Tsc2-/-, p53-/-) Cells: Sytravon;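 also: plate controls were DMSO for no effect and rapamycin for full effect; nearly all actives have a fitted effect of over 50% in size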
# Conditions: phospho-rpS6 immunofluorescence/PI, 24 h; series mostly up to 38.3 µM; activity change, negative = inhibition: at the top concentration
# Summary of the method: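 Cell-based qHTS: Tsc2-/- p53-/- MEF, 24 h cpd, 37 °C; fix/perm, anti-phospho-S6 Alexa-488 + PI; Acumen 488 nm scan; pS6/PI ratio, % positive cells; rapamycin 7.5 nM = inhibition ref; PI count = viability.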
row,SMILES,"activity change, negative = inhibition"
1,COc1ccc(C(=O)Nc2ccccc2SCc2cc(=O)c3cccc(C)c3[nH]2)cc1,inactive: -1.21%
2,COC(=O)c1ccccc1NC(=O)C1=C(C)C(=O)OC12CCCCCC2,inactive: 0.781%
3,O=C(O)Cc1sc(Nc2ccccc2)nc1-c1ccccc1,inactive: -0.128%
4,COc1ccc(S(=O)(=O)NCCS(=O)(=O)N2CCN(c3ccccc3)CC2)cc1C,inactive: -7.72%
5,COc1ccccc1CCNC(=O)C1CCN(c2nnc(-n3cccc3CNc3ccc(C)cc3)s2)CC1,inactive: -2.76%
6,COc1ccc(N2CCN(c3csc4ccc(Cl)cc4c3=O)CC2)cc1,inactive: 0%
7,COc1ccc(Cl)cc1NC(=O)c1cn(C2CCCCC2)c(=O)c2c1c1ccccc1n2C,inactive: -0.341%
8,Cc1c(C(=O)N(Cc2ccc(N(C)C)cc2)CC2CCCO2)oc2ccc(Cl)cc12 (stereo not given),inactive: -2.57%
9,CCOc1ccc(Nc2nc3cc(Cl)c(Cl)cc3nc2-n2nc(C)cc2C)cc1,inactive: 3.17%
10,COc1ccc(CNC(=O)c2cc(-c3ccc(C)cc3)nc3n[nH]c(-c4ccc(Br)cc4)c23)cc1,inactive: 0.349%
11,NS(=O)(=O)c1ccc(NC(=O)CN2C(=O)COc3ccc(Cl)cc32)cc1,inactive: -4.54%
12,Cc1ccc(C)c(S(=O)(=O)c2nnn3c2nc(NC(C)C)c2sccc23)c1,inactive: -9.91%
13,O=C(O)c1ccc2nc(-c3cc4cccc(O)c4oc3=O)[nH]c2c1,inactive: 3.73%
14,CCOc1ccc(Nc2ncnc3c2nc2n3CCCC2)cc1,inactive: 0.585%
15,CCOC(=O)c1c(C)[nH]c(C)c1S(=O)(=O)N1CCCC(C(=O)Nc2ccc(C)cn2)C1 (stereo not given),inactive: -3.57%
16,CCc1ccccc1Nc1nn2c(=O)c3ccc(C(=O)NCc4ccccc4OC)cc3nc2s1,inactive: -0.826%
17,CCN(c1ccccc1)c1ccc2cc(S(=O)(=O)N3CCCC3)ccc2n1,inactive: -5.88%
18,Cc1ccc(-n2nc(CO)c(C(=O)NCCCc3ccccc3)n2)cc1C,inactive: 0.833%
19,COc1ccccc1Cn1cc(C(=O)c2ccc(C)cc2)c(=O)c2cc(C)ccc21,inactive: -14.4%
20,CCOc1ccccc1CNC(=O)c1c(C)oc2ncnc(N3CCOCC3)c12,inactive: -3.42%
21,CCOc1ccc(NC(=O)CSc2ccc(-c3sc(-c4ccccc4)nc3C)nn2)cc1,inactive: 2.45%
22,CCOc1ccc2nc(Cl)c(C3CC(c4ccc(OC)cc4)=NN3S(C)(=O)=O)cc2c1 (stereo not given),inactive: 1.2%
23,CCOC(=O)CNC(=O)Nc1cc(C(=O)NCc2ccccc2OC)ccc1N1CCCC1,inactive: 0.967%
24,CCOC(=O)c1oc2ccc(S(=O)(=O)n3nc(-c4cc(OC)c(OC)c(OC)c4)cc3N)cc2c1C,inactive: -14.8%

row,SMILES,"activity change, negative = inhibition"
1,Cc1ccccc1C(=O)NC1(C(F)(F)F)N=C(c2ccccc2)N(C2CCCCC2)C1=O (stereo not given),inactive: -8.93%
2,CC(C)C(=O)Nc1ccccc1OCc1cc(=O)n2ccccc2n1,inactive: -24.6%
3,CCOc1ccc(NC(=O)C2CCCN(c3ccc(Sc4ccc(C)cc4)nn3)C2)cc1 (stereo not given),inactive: -12%
4,COC(=O)C(CCSC)NC(=O)c1cc2c(n(-c3ccc(Cl)cc3)c1=O)CCCC2=O (stereo not given),inactive: 0.131%
5,O=C(NC(=O)c1ccccc1)Nc1ccc(-c2cc(C(F)(F)F)nn2-c2ccccc2)cc1,inactive: -0.797%
6,CCC(Oc1ccccc1F)C(=O)N1CCC(c2nc3ccccc3s2)CC1 (stereo not given),inactive: -0.58%
7,COc1ccc(Cl)cc1NC(=O)C1CCCN(c2ncnc3onc(C)c23)C1 (stereo not given),inactive: -0.115%
8,CCCn1c(CNC(=O)c2ccc(F)cc2)nc2ccccc21,inactive: 6.82%
9,Cc1ccc2oc(-c3ccc(C)c(NC(=O)c4ccc(N5CCC(C)CC5)c([N+](=O)[O-])c4)c3)nc2c1,inactive: -8.38%
10,O=C(CCCN1C(=O)C(c2ccccc2)Oc2cccnc21)Nc1ccccc1C(F)(F)F (stereo not given),inactive: -5.76%
11,Cc1cccc(NC(=O)c2ccc3snnc3c2)c1C,inactive: -12.4%
12,O=c1c2cc3c(cc2n(Cc2ccc(F)cc2)c(=O)n1Cc1nc(-c2ccccc2)no1)OCO3,inactive: -7.57%
13,CC(C)CN(CCCNC(=O)CN1N=C(c2ccc(Cl)cc2)CCC1=O)CC(C)C,inactive: 9.49%
14,Clc1ccc2c(c1)NC(c1ccncc1)=NC(c1cccs1)=N2,inactive: 4.91%
15,COc1ccc2c(c1)CCc1c(C(=O)Nc3c(C)nn(Cc4ccccc4C)c3C)noc1-2,inactive: -3.86%
16,CCOc1ccccc1NC(=O)C(CC(C)C)NS(=O)(=O)c1ccc2c(c1)oc(=O)n2C (stereo not given),inactive: -0.429%
17,COc1cc(CNC(=O)c2ccc3nc(CCc4ccccc4)oc3c2)cc(OC)c1OC,inactive: 0.394%
18,COC(=O)c1c(SC)nc2ccccc2c1OCc1ccc(Cl)cc1,inactive: -4.26%
19,CNS(=O)(=O)c1cn(CC(=O)N2CCN(c3cccc(C)c3C)CC2)cc1S(=O)(=O)NC,inactive: -2.96%
20,O=c1cc(-c2ccccc2)nc(SCc2nc(-c3ccc(Cl)cc3)no2)[nH]1,inactive: 3.36%
21,Cc1ccc(S(=O)(=O)N(Cc2nc(-c3cccc(C)c3)no2)C2CCCCC2)cc1,inactive: -24.1%
22,O=C(COCc1cc(-c2ccc3c(c2)OCO3)on1)N1CCN(c2cccc(Cl)c2)CC1,inactive: -14.5%
23,CCN1CCN(C(=O)c2cnn(-c3cccc(Cl)c3)c2C2CCN(C(=O)OC(C)(C)C)CC2)CC1,inactive: 2.47%
24,CSC1=NC2(CCN(C(=O)NC3CCCCC3)CC2)N=C1c1ccc(C)cc1,inactive: 3.37%

row,SMILES,"activity change, negative = inhibition"
1,COc1ccc(N2Cc3cccc(C(=O)Nc4cc(C)cc(C)c4)c3C2=O)cc1,inactive: 2.39%
2,O=C(C1COc2ccccc2O1)N1CCN(c2nc3ccc(F)cc3s2)CC1 (stereo not given),inactive: 0.293%
3,Cc1noc(-c2ccc(-c3noc(-c4cccc(F)c4)n3)cc2)n1,inactive: -1.24%
4,NC(=O)C1CCN(C(=O)c2cccc(NC(=O)c3nsc4ccccc34)c2)CC1,inactive: 11.5%
5,Cc1cc(F)ccc1NC(=O)CCS(=O)(=O)c1ccc2c(c1)CC(C)N2C(=O)C1CC1 (stereo not given),inactive: -7.48%
6,Cn1c(=O)c2c(nc(SCC(=O)Nc3ccccc3)n2Cc2ccccc2F)n(C)c1=O,inactive: -0.154%
7,Nc1c(C(=O)Nc2ccc(OC(F)(F)F)cc2)nnn1Cc1ccccc1,inactive: 14.7%
8,CCOc1ccc(CNC(=O)CSc2cc(=O)n(CC)c3ccccc23)cc1,inactive: -0.758%
9,CCN(CC)S(=O)(=O)c1nnc(NC(=O)COc2ccccc2F)s1,inactive: 6.04%
10,CCc1cccc(C)c1Nc1c(-c2ccccc2)nc2sccn12,inactive: -15%
11,Fc1ccc(CNc2ncnc3onc(-c4ccc(F)cc4)c23)cc1,inactive: -5.49%
12,CCc1c(CN2CCN(c3cccc(C)c3C)CC2)csc1C,inactive: 3.45%
13,Cc1ccc(C#N)c(=O)n1CC(=O)Nc1ccccc1C(F)(F)F,inactive: -1.11%
14,O=C(C1COc2ccccc2O1)N(Cc1cccnc1)c1nc2ccc(Cl)cc2s1 (stereo not given),inactive: 2.72%
15,O=C(NC1CCCCC1)c1ccc(Cn2c(SCc3ccc(F)cc3)nc3cccnc32)cc1,inactive: 0%
16,Cc1ccc2c(c1)-c1onc(C(=O)N3CCN(c4ccc(Cl)cc4)CC3)c1CO2,inactive: -0.721%
17,CCOC(=O)N1CCN(Cc2nc3cc(NC(=O)c4ccccc4[N+](=O)[O-])ccc3n2C(C)C)CC1,inactive: 0.63%
18,Cc1ccc(-n2c3nc(=O)[nH]c(=O)c-3cc3c(C)nn(-c4ccccc4)c32)cc1Cl,inactive: -0.501%
19,Cc1cccc(C)c1NC(=O)NCCc1c[nH]c2ccccc12,inactive: -10.8%
20,CCCNC(=O)C1CCC(Cn2c(=O)c3sccc3n(Cc3ccccc3F)c2=O)CC1 (stereo not given),inactive: 3.81%
21,COc1ccccc1CNC(=O)CCn1nc(C)c2c(C)n(-c3ccccc3)nc2c1=O,inactive: 0.0831%
22,Brc1ccc(-c2nc3ccccn3c2Nc2ccc3c(c2)OCCO3)o1,inactive: 5.94%
23,O=S(=O)(c1ccccc1)c1nnn2c1nc(NCc1ccc(F)cc1)c1sccc12,inactive: 1.07%
24,Cc1oc(-c2ccc(Cl)cc2)nc1CS(=O)CC(=O)N1CCN(c2cccc(C(F)(F)F)c2)CC1 (stereo not given),inactive: -0.854%

row,SMILES,"activity change, negative = inhibition"
1,COc1cccc(N2CCN(c3ncnc4c3nc3n4CCCCC3)CC2)c1,inactive: 2.29%
2,CCCCN(CC)C(=O)CSc1nc2n[nH]c(C)c2c(=N)n1-c1cccc(OC)c1,inactive: -10.5%
3,CCOC(=O)c1c(S(=O)(=O)N2CCC(C(=O)NCc3ccc(F)cc3)CC2)c(C)n(C)c1C,inactive: -2.8%
4,CN(C)S(=O)(=O)c1ccc2c(c1)N(CC(=O)Nc1ccc(OC(F)(F)F)cc1)C(=O)CS2,inactive: 1.75%
5,C=Cc1ccc(Cn2c(C(=O)O)c(CNC3CCCC3)c3ccc(C)cc32)cc1,inactive: -0.212%
6,Cc1cccc(N(C)C(=O)CCS(=O)(=O)c2ccc3c(c2)oc(=O)n3C)c1,inactive: 7%
7,COc1ccc(OCC(=O)NC2CC(=O)N(c3cccc(OC)c3)C2)cc1 (stereo not given),inactive: 0.623%
8,COc1ccc(NC(=O)c2cc(S(=O)(=O)N3CCCCCC3)cn2C)c(OC)c1,inactive: -9.07%
9,COc1ccc(NC(=O)CN2CCN(Cc3ccc(F)cc3)S2(=O)=O)cc1Cl,inactive: -1.91%
10,CC(C(=O)NCc1ccc(Cl)cc1)n1ccc2cc(S(=O)(=O)N3CCCCCC3)ccc21 (stereo not given),inactive: -3.02%
11,O=C(NCc1ccccc1Cl)C1CCCN(S(=O)(=O)c2cccc3nsnc23)C1 (stereo not given),inactive: -0.708%
12,COc1ccc(OC)c(CNC(=O)c2c3c(nc4ccccc24)C(=O)N(C2CCCCC2)C3)c1,inactive: -16.8%
13,CCC(=O)N1CCc2cc(Br)cc(S(=O)(=O)N3CCN(c4ccc(C)cc4)C(C)C3)c21 (stereo not given),inactive: -15%
14,CCOC(=O)c1c(C)[nH]c(C)c1S(=O)(=O)N1CCC(C(=O)N2CCN(c3ccccc3)CC2)CC1,inactive: -6.43%
15,Cc1ccccc1-c1noc(-c2cccnc2NCc2ccco2)n1,inactive: -1.15%
16,CCOC(=O)c1c(C)[nH]c(C)c1S(=O)(=O)N1CCC(C(=O)N2CCN(c3cccc(Cl)c3)CC2)CC1,inactive: -5.07%
17,Cc1ccc2occ(CC(=O)N(Cc3ccccc3Cl)C3CCS(=O)(=O)C3)c2c1 (stereo not given),inactive: -0.728%
18,CCOC(=O)c1cccc(NC(=O)NCc2cccn2Cc2ccccc2)c1,inactive: -7.31%
19,O=C(CSc1oc(-c2ccccc2)nc1S(=O)(=O)c1ccc(Cl)cc1)Nc1ccc(F)cc1,inactive: -0.217%
20,Cc1ccc(Cn2cc(CCC(=O)NC3CCC(C)CC3)c3ccccc32)cc1 (stereo not given),inactive: -4.66%
21,CC1CCC(Nc2nc3c(-c4ccc(Cl)cc4)nnn3c3ccccc23)CC1 (stereo not given),inactive: 3.4%
22,CC(=O)Nc1ccc(/C=C/c2nc(-c3ccccc3O)n(-c3ccccc3)n2)cc1,inactive: 2.01%
23,Cn1c(=O)oc2cc(S(=O)(=O)N3CCCC(C(=O)NCCc4ccc(Cl)cc4)C3)ccc21 (stereo not given),inactive: -16%
